Results from PubChem BioAssay AID686978 (National Center for Advancing Translational Sciences (NCATS), 2013).
Screen size: about 420,000 compounds; about 64,000 (15%) were called active. Inconclusive means that the source gave no clear call. Such entries were picked first, then a sample of the others. Calls follow the shape of the dose curve; as a rule, active = well fitted inhibition curve with a large enough effect; inconclusive = small, poorly fitted or top-dose-only effect; inactive = flat fitted curve, though single readings scatter. Potencies of inconclusive entries are left out as doubtful fits.

assay: qHTS for Inhibitors of human tyrosyl-DNA phosphodiesterase 1 (TDP1): qHTS in cells in absence of CPT; conditions: DT40 Tdp1-/- hTDP1 cells, no CPT, ATP luminescence, 48 h; activity change, negative = growth inhibition: at 46.2 µM (top of the series) unless noted; also: nearly all actives have a fitted effect of over 55% in size
How it was run: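 Cells were dispensed at 400 per well, compounds added by pin tool, plates incubated ≥48 hr at 37 °C, then CellTiter-Glo added for 30 min at room temperature before luminescence reading. Line: DT40 Tdp1-/- complemented with hTDP1; camptothecin omitted.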
% is scaled to controls: 0 for no effect and ±100 for the full control effect; potency is read from the fitted curve at half-maximal effect; tags tell the direction and shape of the fitted curve.

Row | SMILES | Potency | activity change, negative = growth inhibition
1 | CN(C)C(=O)CCc1ccc2c3c([nH]c2c1)[C@]1(CCC2CCCC2)[C@@H](C(=O)N2CCOCC2)C[C@H](CC(=O)NC(C)(C)C)C(=O)N1CC3 | inconclusive [inhibitor, single point] | 
2 | COc1ccccc1NC(NC(=O)c1ccccn1)C(Cl)(Cl)Cl (centres undefined) |  | inconclusive: -33.3% [inhibitor]
3 | CCN(CC)CC(O)CN1C(=O)NC(C)(C)C1=O (centres undefined) |  | inactive: -9.53%
4 | COc1ccc([N+](=O)[O-])cc1N(CC(O)CN(CC(C)C)CC(C)C)S(=O)(=O)c1ccc(C)cc1 (centres undefined) | active: 23.1 µM | 
5 | CC1(C(=O)Nc2cccc3ccccc23)CCN1C(=O)Cc1ccccc1Cl (centres undefined) | inconclusive [inhibitor, single point] | 
6 | COc1ccc(CNC(=O)COc2cc(O)c3c(c2)OC(C)(C)CC3=O)c(OC)c1 | inconclusive [inhibitor, single point] | 
7 | CC(OC(=O)c1cccc(S(=O)(=O)Nc2cccc(C(F)(F)F)c2)c1)C(=O)Nc1ccc2c(c1)OCCO2 (centres undefined) | active: 16.4 µM | 
8 | C[C@@H]1CN([C@@H](C)CO)C(=O)CCCn2nncc2CO[C@H]1CN(C)S(C)(=O)=O | inconclusive [inhibitor, full curve, poor fit] | 
9 | CCOC(=O)c1c(-c2ccc(C)o2)csc1NC(=O)CN(C)CC(=O)Nc1ccc(C)cc1 | inconclusive [inhibitor, single point] | 
10 | Cc1ccnc(Nc2nc(-c3ccc(F)cc3)cs2)c1 | inconclusive [inhibitor, single point] | 
11 | O=c1[nH]cc(S(=O)(=O)N2CCOCC2)c(=O)[nH]1 |  | inactive: -4.33%
12 | COC(=O)c1sc2ccccc2c1-n1cccc1C(=O)C(=O)Nc1ccc(Cl)cc1 | inconclusive [inhibitor, partial curve] | 
13 | COc1cc2ncnc(NCc3cccc(Cl)c3)c2cc1OC | active: 14.6 µM | 
14 | Cc1ccc(NC(=S)NNC(=S)Nc2ccc(C)cc2C)cc1 | active: 5.17 µM | 
15 | O=C(O)c1cc(NC(=O)c2cccc(N3C(=O)c4ccccc4C3=O)c2)cc(C(=O)O)c1 |  | inactive: -0.326%
16 | O=c1c2ccc([N+](=O)[O-])cc2ncn1CCOc1ccccc1 | inconclusive [inhibitor, single point] | 
17 | O=C(N/N=C/c1cccc(OC(=O)N2CCOCC2)c1)c1cccs1 |  | inconclusive: -32.8% [inhibitor]
18 | CC(C)Cn1cnc2c(SCc3ccc(Cl)cc3)nc(N)nc21 | inconclusive [inhibitor, single point] | 
19 | Cn1nc(-c2ccccc2)c(-c2ccccc2)c(C(=O)Nc2ccccc2C(N)=O)c1=O | inconclusive [inhibitor, partial curve, poor fit] | 
